The assay addresses T1, recombinant human KIR3DS1/CD158e2 Fc chimera protein (4136-KR-050, R&D Systems) (human, UniProt Q14943 22-340, limits assumed).
T1 construct: Bought Fc chimera; also called soluble KIR3DS1; recombinant KIR3DS1
The assay can be described thus: flow cytometry, KIR-Fc on scFv-K562 cells.

T1 sequence (Q14943 22-340 limits assumed, change not shown): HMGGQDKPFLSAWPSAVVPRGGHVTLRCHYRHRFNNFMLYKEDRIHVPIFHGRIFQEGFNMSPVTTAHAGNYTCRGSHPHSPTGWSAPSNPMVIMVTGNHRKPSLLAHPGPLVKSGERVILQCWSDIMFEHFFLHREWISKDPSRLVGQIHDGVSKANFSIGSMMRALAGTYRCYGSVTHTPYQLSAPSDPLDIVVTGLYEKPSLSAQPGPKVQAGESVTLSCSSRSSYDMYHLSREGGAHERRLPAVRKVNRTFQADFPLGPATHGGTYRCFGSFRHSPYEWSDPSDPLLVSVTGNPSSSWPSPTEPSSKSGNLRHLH

B1: membrane-type a3DL1-DS2 scFv (scFv)
scFv: DYKDDDDKGSGQVQLQQSGPGLVKPSQTLSLTCAISGDSVSSNSAAWNWIRQSPSRGLEWLGRTYYRSKWYNDYAVSVKSRITINPDTSKNQFSLQLNSMTPEDTAVYYCAREEGVSDAFDVWGQGTLVTVSSGGGGSGGGGSGGGGS[about 100 residues omitted][about 100 residues omitted]
notes: On K562 cells
In the case of B1, the binding result is listed as “no binding (tested: 0.1 µM)”.

B2: membrane-type a3DL1-DS3 scFv (scFv)
scFv: DYKDDDDKGSGQVQLQQSGPGLVKPSQTLSLTCAISGDSVSSDSAAWNWIRQSPSRGLEWLGRTYYRSKWYNDYAVSVKSRITINPDTSKNQFSLQLNSVTPEDTAVYYCAREEGVSDAFDVWGQGTLVTVSSGGGGSGGGGSGGGGS[about 100 residues omitted][about 100 residues omitted]
notes: On K562 cells
Consider B2, for which the binding result is listed as “no binding (tested: 0.1 µM)”.

B3: membrane-type a3DL1-DS5 scFv (scFv)
scFv: DYKDDDDKGSGQVQLQQSGPGLVKPSQTLSLTCAISGDSVSSNSAAWNWIRQSPSRGLEWLGRTYYRSKWYNDYAVSVKSRITINPDTSKNQFSLQLNSVTPEDTAVYYCAREMGWYDWFDPWGQGTLVTVSSGGGGSGGGGSGGGGS[about 100 residues omitted][about 100 residues omitted]
notes: On K562 cells
Turning to B3, the binding result was “no binding (tested: 0.1 µM)”.
